# What was measured:
# Human OX40 = target: T1, Human OX40 (human, UniProt P43489 29-277); test: flow cytometry on human OX40-overexpressing Jurkat NFkB-luciferase clone 64 cells, AlexaFluor 647 anti-human IgG secondary [panel A]
# T1 construct: also called CD134; TNFRSF4
# T1 sequence: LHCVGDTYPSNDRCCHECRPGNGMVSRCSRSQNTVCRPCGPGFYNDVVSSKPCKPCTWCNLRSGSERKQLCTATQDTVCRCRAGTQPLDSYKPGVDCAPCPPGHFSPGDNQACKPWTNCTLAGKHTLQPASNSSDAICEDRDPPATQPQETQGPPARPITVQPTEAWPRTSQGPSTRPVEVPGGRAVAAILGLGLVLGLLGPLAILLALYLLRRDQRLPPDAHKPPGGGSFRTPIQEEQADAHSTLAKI
# Protocol: Human OX40-overexpressing Jurkat NFκB-luciferase clone 64 cells were cultured in complete RPMI+10% FBS prior to binding experiments, without the need for activation.
# OX40mAb24 (10 μg/mL) or 9B12 (10 μg/mL) was diluted over a 17 point 2-fold dilution series. OX40mAb24 was added to 100,000 cells (activated primary CD4⁺ T cells or human OX40-overexpressing Jurkat NFkB-luciferase clone 64 cells) per well and incubated for one hour at 4° C. For background binding subtraction, cells were incubated in the presence of secondary antibody alone. […] Following secondary antibody incubation, cells were washed and suspended in 100 μL FACS buffer for flow cytometry analysis on a BD LSRII flow cytometer as described below.
# [1] = target: T2, Human TNFRSF18 (GITR) expressed on HEK293 cells (human, UniProt Q9Y5U5 26-241); test: flow cytometry on transfected HEK293 cells, 1 µg/mL
# T2 chain: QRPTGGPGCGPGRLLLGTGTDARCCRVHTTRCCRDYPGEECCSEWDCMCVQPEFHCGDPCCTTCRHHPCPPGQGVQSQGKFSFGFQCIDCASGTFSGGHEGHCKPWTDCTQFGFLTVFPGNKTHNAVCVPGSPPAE
# Source text: cDNA constructs capable of directing the expression of individual TNFRSF members, when transfected into mammalian cells, were obtained from Origene Technologies, Rockville, Md. These cDNA constructs were amplified and purified by the Protein Sciences group at MedImmune in Gaithersburg, Md. for use in transient transfections. […] Forty-eight hours post transfection, cells were removed from tissue culture plates by trypsinization. […] Cells were then suspended in cold FACS buffer (PBS+2% FBS) and plated into 96 well non-tissue culture-treated plates for binding studies with TNFRSF member-specific mAbs (Table 3-3) and OX40mAb24.
# For binding of antibodies or OX40mAb24, HEK cells were pelleted, FACS buffer removed, and cells suspended in FACS buffer containing 2 μg/mL propidium iodide (PI) and either a fluorochrome-labeled mAb, specific for the transfected TNFRSF member, at a concentration recommended by the manufacturer or with OX40mAb24 at a concentration of 1 μg/mL. For binding controls, cells were separately incubated with fluorochrome-labeled isotype control antibodies. Cells were incubated with antibodies for 1 hour at 4° C. in the dark. Thereafter, cells incubated with fluorochrome-labeled monoclonal antibodies were washed in cold FACS buffer and then binding events collected and analyzed by flow cytometry using an LSRII flow cytometer (BD Biosciences, San Jose, Calif.) and FlowJo software, as described in Section 3.2.3. Cells incubated with OX40mAb24 were washed in ice cold FACS buffer and then suspended 25 μg/mL of Alexa Fluor® 647 goat antihuman IgG (H+L) secondary antibody and incubated for a further 30 minutes at 4° C. in the dark. For a secondary antibody binding control cells were incubated in the absence of OX40mAb24, but in the presence of fluorochrome-labeled secondary antibody alone. Thereafter, cells were washed and suspended in cold FACS buffer for analysis on an LSRII flow cytometer.
# Rhesus monkey OX40 = target: T3, Rhesus monkey OX40 (rhesus monkey); test: flow cytometry, equilibrium binding to activated primary rhesus CD4+ T cells; mean of 2 experiments (StdErr)
# T3 construct: also called rhesus macaque OX40
binder,measurement,setting,value
"OX40mAb24 (antibody, human IgG1, kappa, Humanized from 9B12; human IgG1 kappa; also called humanized anti-human OX40 IgG1κ monoclonal antibody) heavy: QVQLQESGPGLVKPSQTLSLTCAVYGGSFSSGYWNWIRKHPGKGLEYIGYISYNGITYHNPSLKSRITINRDTSKNQYSLQLNSVTPEDTAVYYCARYKYDYDGGHAMDYWGQGTLVTVSSASTKGPSVFPLAPSSKSTSGGTAALGCLVKDYFPEPVTVSWNSGALTSGVHTFPAVLQSSGLYSLSSVVTVPSSSLGTQTYICNVNHKPSNTKVDKRV[skipping human IgG1 Fc] light: DIQMTQSPSSLSASVGDRVTITCRASQDISNYLNWYQQKPGKAPKLLIYYTSKLHSGVPSRFSGSGSGTDYTLTISSLQPEDFATYYCQQGSALPWTFGQGTKVEIKRTVAAPSVFIFPPSDEQLKSGTASVVCLLNNFYPREAKVQWKVDNALQSGNSQESVTEQDSKDSTYSLSSTLTLSKADYEKHKVYACEVTHQGLSSPVTKSFNRGEC",EC50 (read off the curve),Human OX40,~500 pM
same,ratio of MFI to secondary antibody alone,[1],1.1 fold
same,Kd,Rhesus monkey OX40,369 pM

# Source: patent US20160137740A1 (AstraZeneca / MedImmune, published 2016)
